Data published in the supplement of paper PMC3334620.
In all, about 33,000 sequences were measured (“E-score (-0.5 to 0.5)”: median about -0.035, highest 2% from about 0.34 on). This is one part of the list.

biological target: T1, Mot3 (UniProt P54785); test: PBM E-score (8-mer binding enrichment) (E-score (-0.5 to 0.5)); higher = stronger / more preferred TF binding; most listed sequences are background and not binding sites; conditions: protein concentration: 200 nM; construct: GST-full length
T1 sequence: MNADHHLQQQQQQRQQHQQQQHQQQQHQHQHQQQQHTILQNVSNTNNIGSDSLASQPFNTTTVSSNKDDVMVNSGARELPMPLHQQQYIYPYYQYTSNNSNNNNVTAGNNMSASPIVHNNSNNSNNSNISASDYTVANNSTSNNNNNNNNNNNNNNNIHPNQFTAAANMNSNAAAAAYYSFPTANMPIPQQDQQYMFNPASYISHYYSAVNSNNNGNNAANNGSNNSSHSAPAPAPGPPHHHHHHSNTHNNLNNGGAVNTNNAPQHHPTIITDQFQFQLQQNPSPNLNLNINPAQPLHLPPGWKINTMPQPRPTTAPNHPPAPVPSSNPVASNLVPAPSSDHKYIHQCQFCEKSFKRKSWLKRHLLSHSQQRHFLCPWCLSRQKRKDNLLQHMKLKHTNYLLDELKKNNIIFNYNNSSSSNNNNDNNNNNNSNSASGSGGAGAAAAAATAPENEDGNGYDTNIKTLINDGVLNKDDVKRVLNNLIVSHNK
In short: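 Universal all-10-mer Agilent arrays, double-stranded by primer extension on fresh or once-stripped slides, were probed with about 100-200 nM GST-tagged yeast transcription factors made by PURExpress. Fluorescent anti-GST detected bound protein, and masliner normalised the scans. E-scores from the Universal PBM Analysis Suite were given to each ungapped eight-base word pooled with its reverse complement.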

Row | Sequence | PBM E-score
1 | CAGACACC | -0.0175
2 | CAACCCCA | 0.0886
3 | CAAAGTGA | -0.0327
4 | CTCTGACA | 0.0111
5 | AATACCGT | -0.00924
6 | GCCGTGCC | 0.346
7 | TCAGTACA | 0.131
8 | CTACGAAA | -0.00286
9 | CATAAAGA | 0.174
10 | AGCACCAC | -0.22
11 | ATGTTCCC | 0.024
12 | AACTGCAA | -0.0216
13 | CACCGTGC | 0.0728
14 | CCCGGACC | -0.202
15 | CCGCGGAA | 0.00089
16 | ATAGGCGC | 0.249
17 | GAACTCAC | -0.064
18 | CTTGAAGC | -0.0746
19 | CGGATGCA | -0.217
20 | GGTGAGAC | -0.13
21 | GAATTTGC | -0.0228
22 | AGTCTTCC | -0.0105
23 | CCCCGTCA | -0.2
24 | ACGTATAA | 0.234
25 | ACCCCTAG | -0.208

Row | Sequence | PBM E-score
26 | ATTCCAGC | -0.168
27 | CGACAATC | -0.149
28 | ACTAAAGT | 0.0146
29 | AGGAAAGC | 0.405
30 | AGTCCTCC | -0.221
31 | CCACGAGA | -0.283
32 | CCCAGACA | -0.174
33 | TATTTGGA | 0.0492
34 | GGCTATGA | -0.214
35 | CATAGGAA | 0.231
36 | GAGGACCA | -0.144
37 | GCACTGAC | -0.0708
38 | ACACAAAC | 0.207
39 | CCCGATGC | -0.292
40 | GCCCTGGA | -0.172
41 | AGAACCCA | -0.215
42 | ACACCAGT | -0.0584
43 | AATTCGTC | -0.0787
44 | ATCAATAG | -0.00649
45 | AACCCTTC | -0.117
46 | CTCCCTCA | -0.286
47 | CTAGAGTA | 0.0252
48 | ACTATCCA | -0.204
49 | ATAGGACA | -0.101
50 | CCACGTTA | 0.224

Row | Sequence | PBM E-score
51 | AAATGGGG | -0.133
52 | CGCGCAAC | -0.041
53 | ATCCGTGC | 0.0629
54 | GTGTGTTA | 0.348
55 | AATCTAAT | 0.0108
56 | CGGCGGAA | -0.148
57 | ATGGACCA | 0.039
58 | AAGGCTTA | 0.134
59 | AAATGGCA | 0.101
60 | GTAGTATA | 0.148
61 | ATGGGACG | -0.215
62 | CAAAGGGC | -0.0614
63 | CATGCTCG | -0.112
64 | AAGGCCGT | -0.12
65 | CTTTTAAA | 0.107
66 | ATTACCTG | 0.336
67 | CCGCAGCA | -0.247
68 | ACGCTTGA | 0.106
69 | ACCGCATG | -0.181
70 | AGTGTTAC | 0.193
71 | AGGCGCCG | 0.222
72 | CGAAGGAA | 0.39
73 | AACGTAAT | 0.318
74 | AGGCTCGC | 0.121
75 | ATAAGGGA | -0.0511

Row | Sequence | PBM E-score
76 | ATCGGAGC | -0.322
77 | ATGTTAAT | 0.338
78 | GAGGGACA | -0.248
79 | TCCGTTCA | -0.194
80 | AGAGTACG | -0.00983
81 | CCAGCCGC | -0.268
82 | AGATTAAA | 0.0194
83 | CCATTGAC | -0.0604
84 | ATTCTAAA | 0.119
85 | GTTGTACA | 0.25
86 | GGCCATGA | -0.223
87 | GCTTATGA | -0.0761
88 | GCCGTTGA | -0.125
89 | AACATTGG | 0.0641
90 | ATAGCTAC | 0.0401
91 | ACAATAAA | -0.0214
92 | CCCGTTAA | -0.00725
93 | GCTCGAGA | -0.218
94 | ACGACGCT | -0.0703
95 | CGACGTCC | 0.0279
96 | AGGTGTTA | 0.225
97 | AGACATCA | -0.134
98 | CAGGGTTA | -0.034
99 | ACTGTCAC | -0.251
100 | AAGTTGTA | 0.237

Row | Sequence | PBM E-score
101 | CCACATCG | -0.121
102 | CGGGGATA | -0.188
103 | TCTCTGCA | -0.0721
104 | TCTGAAGA | -0.316
105 | ACGCCACC | -0.0804
106 | ATAATTTG | 0.0359
107 | AAACAACA | 0.271
108 | CGATTATC | -0.0722
109 | GAGAACGA | -0.0552
110 | CGGGGTCC | -0.122
111 | AGATCTCA | -0.0113
112 | GCTCGATA | -0.148
113 | CATCGACG | -0.168
114 | AGGCATTA | 0.297
115 | GGCTGTAA | 0.0664
116 | GTAGTGAC | 0.0296
117 | CGCATCCA | -0.106
118 | AAGGGTCG | -0.0478
119 | ACTAGCCG | -0.133
120 | CCTCTGCA | -0.113
121 | CAGCCCTC | -0.278
122 | AGGCGGTG | -0.0519
123 | CTATGGCA | -0.125
124 | TCATGCCA | 0.0828
125 | TCGTAAAA | 0.217

Row | Sequence | PBM E-score
126 | CCTACGAC | 0.0236
127 | CGCTGAGC | -0.161
128 | CCAACCAA | -0.172
129 | ACACGGCC | 0.188
130 | ACTAACTA | -0.124
131 | CCGGAGGA | -0.351
132 | ATGGGCTA | 0.0399
133 | AAGTCTCG | -0.0604
134 | CAAAAGTA | 0.122
135 | CCGCGGGA | -0.23
136 | ACCGTAAG | -0.0964
137 | GACCGAAA | -0.12
138 | GGTTTTTA | 0.198
139 | AGTTGGGC | -0.177
140 | CCGTTGAG | -0.213
141 | ATGGCACA | -0.078
142 | CTCTCCAA | -0.133
143 | TCTTTTAA | 0.0191
144 | TCAGCGAA | -0.121
145 | CAGCTTCA | -0.0237
146 | AGATTATA | -0.0825
147 | ATTCTCCG | -0.174
148 | AAACACGA | 0.292
149 | ATTTTGTA | 0.192
150 | CACACGAG | 0.168

Row | Sequence | PBM E-score
151 | CGTAGCGA | -0.285
152 | ACTCGAAT | 0.00379
153 | GAGTCCAC | -0.262
154 | CTAACGCA | 0.0496
155 | CCGCAAGG | -0.128
156 | ATTGCGGA | -0.112
157 | AAAACTGA | -0.1
158 | GATGGCAC | -0.154
159 | AGTCTGAC | -0.277
160 | CACGATTA | 0.163
161 | ATCCTTCG | -0.176
162 | GGTGGGTA | -0.0735
163 | CGCGACCA | -0.00815
164 | CGAGAAAA | -0.0261
165 | CTAATCGC | 0.00549
166 | CAGGGCTC | -0.354
167 | CACAAAAG | 0.0956
168 | AGTAATAT | 0.115
169 | CTCAGACC | -0.17
170 | GTGAGGTA | -0.0654
171 | CAGCCACC | -0.184
172 | AAATGGAA | -0.183
